44 sequences from the supplement of paper PMC11417369 can be followed below.

Some of the results follow.

The assay has as its system PfAP2-HC AP2 domain (GST-tagged). Nature of the assay: gcPBM binding intensity (ln(normalized median fluorescence intensity)); higher = stronger DNA binding. The method, boiled down: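 Using an Agilent 4 × 180k array, primer-extended double-stranded 36-bp intergenic genomic probes and negative controls were exposed for 1 h to GST-fused P. falciparum DNA-binding domains expressed in E. coli. Binding was carried out in 1× PBS with 1% milk, 0.2 mg/ml BSA, 0.5% salmon testes DNA and 0.03% Triton X-100, and protein was detected with Alexa488 anti-GST antibody and a 488 nm scan. Binding intensity is the highest Masliner-normalised natural-log median intensity across replicate spots of either probe orientation.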
With “ATAATTATTTTCCCGTGTACTTATTTTTTTCAAGTA [XGTACX_site8843]”, the “gcPBM binding intensity (ln)” value is 9.71.

Regarding “GTAAATAAATAAATAAATAAATATATATATATATAT [CACACA_negctrl_site1737]”, the “gcPBM binding intensity (ln)” value is 9.66.

As to “AATAAAAAAAAATTCACACAAAGTTAGATTAACTAT [CACACA_site4224]”, the “gcPBM binding intensity (ln)” value stood at 9.61.

“AATGATCAGATATACACACACACAAAAAAAAAAAAA [CACACA_site7806]”: the “gcPBM binding intensity (ln)” value came to 10.4.

Consider “ATTTTTTCCAATTCTTTACCTTAGAAAGGTGTTCAA [CACACA_negctrl_site1401]”, for which the “gcPBM binding intensity (ln)” value was 9.44.

On to ATATATTTTTATGTAGTGCATTTAAATAATAAATGC, for which the “gcPBM binding intensity (ln)” value amounted to 9.47.

Take “ATATATATATAATGAAGTACGAAAAAATAAGAAATG [XGTACX_site4001]”: the “gcPBM binding intensity (ln)” value came out at 9.9.

Take “ATTCTAAATAAATGTACACACAAAAATAAATGTATA [CACACA_site1732]”: the “gcPBM binding intensity (ln)” value worked out at 9.82.

For the sequence TTTATATTTAAAAGGATGCACTACAAATTCTAAATA, the “gcPBM binding intensity (ln)” value is 9.36.

For the sequence “TATCCTTATATTTGCACACACACACCCTAAAATGAA [CACACA_site1029]”, the “gcPBM binding intensity (ln)” value amounted to 10.5.

For the sequence “CTACAATATCTTTAAAGTACTTTTATATAACTACCA [XGTACX_site6119]”, the “gcPBM binding intensity (ln)” value was found to be 9.7.

As for “AAGACAAATATGAAGAGTACATTTATATAAAAATTA [XGTACX_site5142]”, the “gcPBM binding intensity (ln)” value was found to be 9.54.

“AAAACAAACAGACACACACACATATTTATATTTATA [CACACA_site7681]”: the “gcPBM binding intensity (ln)” value was determined as 11.

With “TTATATTAAACAAACACACACATATAAATATAAATA [CACACA_site7174]”, the “gcPBM binding intensity (ln)” value turned out to be 10.2.

Consider “AATATTAGGTTATGTAGTACATAACAATAATTATAC [XGTACX_site5733]”, for which the “gcPBM binding intensity (ln)” value was 9.9.

Regarding “TTTTATTTTATTCAATTTTTACTTTTATAAAAATAT [GTGCAC_negctrl_site578]”, the “gcPBM binding intensity (ln)” value was 9.46.

As for “ATGTATATGCAAACATGTACATATATAAACATATAT [XGTACX_site4159]”, the “gcPBM binding intensity (ln)” value stood at 9.8.

Take GTGTTGGGAAAAGGCATGCACTTTTTTTTTTTTTTT: the “gcPBM binding intensity (ln)” value came to 9.8.

In the case of “ATAAAGAATATAAATACACACTTAAATATATATTAT [CACACA_site6071]”, the “gcPBM binding intensity (ln)” value stood at 9.83.

For “AAGGAATATGTATATACACACAGGTACATATTTATA [CACACA_site6344]”, the “gcPBM binding intensity (ln)” value was determined as 10.

With “TAATTTTATATAAATTGTACAAAAATATTTTATTAA [XGTACX_site7166]”, the “gcPBM binding intensity (ln)” value amounted to 9.41.

On to “TAAAATATACAAATTTGTACATATATATGTATGTAT [XGTACX_site1127]”, for which the “gcPBM binding intensity (ln)” value was 9.88.

For “TGCAGGTGTTATTCACGTACGCATTTGATTAAAAAA [XGTACX_site7743]”, the “gcPBM binding intensity (ln)” value was determined as 9.43.

“ATTAGAAAATAAAATAATAAATAAAATAAAAAAAAA [CACACA_negctrl_site409]”: the “gcPBM binding intensity (ln)” value is 9.64.

For “ATAAAAACATAAAAATGTACATATATATATATATAT [XGTACX_site7165]”, the “gcPBM binding intensity (ln)” value is 9.9.

Regarding “AATTCACATGTGAACTAAAAGAATATTATATATATA [CACACA_negctrl_site1632]”, the “gcPBM binding intensity (ln)” value stood at 9.55.

Turning to “AAATATATATATAGTACATGCAGTAGATAATTTAAT [TGCATGCA_site299]”, the “gcPBM binding intensity (ln)” value turned out to be 10.

Regarding “ATTAGGTATTTTTTTTGTACATATTATATAATGTGA [XGTACX_site3815]”, the “gcPBM binding intensity (ln)” value stood at 9.61.

“CACAAAAATTTATACACACACATATAAAATATAGAT [CACACA_site6218]”: the “gcPBM binding intensity (ln)” value was determined as 10.7.

For “TTCACTATACAAAGGTGTACTTAATTTTGTCCCATT [XGTACX_site7483]”, the “gcPBM binding intensity (ln)” value came to 9.7.

For “AGTTATTACACACAAACATGCATTAATATCAAAAAA [TGCATGCA_site63]”, the “gcPBM binding intensity (ln)” value stood at 9.84.

With “TTTTTTTTTTTTTTTTGTACATAATTCCATATTTTT [XGTACX_site1789]”, the “gcPBM binding intensity (ln)” value came to 9.18.

Regarding “TGATCTTTACACATATTATATATATATAAAAAAAAA [XGTACX_negctrl_site360]”, the “gcPBM binding intensity (ln)” value is 9.52.

Regarding “AATCTAGGTATTTATACACACTAAAATAATATACGA [CACACA_site4515]”, the “gcPBM binding intensity (ln)” value was 9.8.

As for “AAAAAAAAAAGAAACACACACATATAGATTTATAAC [CACACA_site6927]”, the “gcPBM binding intensity (ln)” value came out at 10.9.

Regarding “ATTTAAATAATATTCACACACAAAATTAAATTTTAA [CACACA_site6246]”, the “gcPBM binding intensity (ln)” value is 9.75.

For the sequence “AAAAAATTAACCGTAACACACACACCGATATATATA [CACACA_site9312]”, the “gcPBM binding intensity (ln)” value worked out at 10.5.

Take “GCTCTAATTAATATTTGTACACACATATTTAACCTA [XGTACX_site6808]”: the “gcPBM binding intensity (ln)” value came out at 10.

On to “CCCTCAACGAATTTGAGTACACATTTTAAATGATAT [XGTACX_site7763]”, for which the “gcPBM binding intensity (ln)” value is 9.41.

For “ATCGCAAGATTAATATAAGGAGAAACGTTTATATAT [GTGCAC_negctrl_site267]”, the “gcPBM binding intensity (ln)” value is 9.66.

With “TTATAACATATAAACATGTTTCATCTTACGTATTTT [GTGCAC_negctrl_site694]”, the “gcPBM binding intensity (ln)” value is 9.93.

As to “TGTTATATCAATAATATATAATAATACCCTTCTTTT [CACACA_negctrl_site1682]”, the “gcPBM binding intensity (ln)” value was 9.48.

Take “ATATTTAATTTGTATGGTACAGTACGATCTTTCTTT [XGTACX_site5533]”: the “gcPBM binding intensity (ln)” value was determined as 9.78.

As for ATAAGAATATATAGAGTGCGTTGAAGAATTATAATA, the “gcPBM binding intensity (ln)” value was 9.76.
